From PubChem BioAssay AID485344 (National Center for Advancing Translational Sciences (NCATS), 2010)
Screen size: about 340,000 compounds; about 6,900 (2%) were called active. Rule as the data show it: active = inhibition above about 30%; inactive = below that, where a call was filed. Only a part is listed here, and it is no random draw. Entries without a call were filed so in the source.

Each compound was assayed against D(2) dopamine receptor (Homo sapiens) (UniProt P14416) (assay: HTS Assay for Allosteric Antagonists of the Human D2 Dopamine Receptor: Primary Screen for Antagonists). Details: HEK293 TREx D2 cells, calcium flux, dopamine EC80; at 10 µM; stronger effect = higher value.
Chain of UniProt P14416 (P14416 whole entry, looked up): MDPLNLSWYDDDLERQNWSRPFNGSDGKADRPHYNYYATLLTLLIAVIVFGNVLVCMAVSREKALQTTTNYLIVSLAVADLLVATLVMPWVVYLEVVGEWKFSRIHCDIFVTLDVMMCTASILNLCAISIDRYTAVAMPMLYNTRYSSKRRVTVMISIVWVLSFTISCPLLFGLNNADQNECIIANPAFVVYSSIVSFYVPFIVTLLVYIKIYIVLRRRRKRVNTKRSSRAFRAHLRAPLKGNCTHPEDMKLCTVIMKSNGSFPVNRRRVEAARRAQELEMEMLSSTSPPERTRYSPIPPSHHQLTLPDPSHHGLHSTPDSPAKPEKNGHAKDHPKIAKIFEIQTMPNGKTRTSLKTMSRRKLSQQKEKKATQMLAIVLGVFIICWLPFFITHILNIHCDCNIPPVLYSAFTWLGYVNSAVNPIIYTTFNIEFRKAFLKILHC
Outline: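 HEK293 T-REx D2 cells, tet-induced, calcium dye no-wash. Cpd pintool add, 180 s kinetic, then EC80 DA, 180 s kinetic. Ca flux read.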
Also: 0% is about no effect.

| SMILES | inhibition |
| --- | --- |
| CCOc1ccc(-c2nc3cc(NC(=O)COc4cccc(C)c4)ccc3o2)cc1 | 6.65% |
| O=c1c2sc3ccccc3c2n(Cc2ccc(F)cc2Cl)c(=O)n1Cc1ccccc1 | 1.46% |
| CCOc1ccccc1CNC(=O)c1oc2ccc3c(c2c1C)C(=O)CC(C)(C)O3 | -3.08% |
| CCN(CC)S(=O)(=O)c1cc(NC(=O)C(C)N2CCN(Cc3ccc4c(c3)OCO4)CC2)ccc1C (stereo not drawn) | active: 84.3% |
| Cc1ccc(Cl)cc1Nc1nn2c(=O)c3ccc(C(=O)NC(C)c4ccccc4)cc3nc2s1 (stereo not drawn) | 10% |
| Cc1cccc(CN2CCN(C(c3ccccc3)c3ccc(Cl)cc3)CC2)c1 (stereo not drawn) | active: 30.9% |
| Cc1ccc(Cl)cc1N1CCN(C(=O)CCS(=O)(=O)c2ccc3c(c2)oc(=O)n3C)CC1 | 8.33% |
| Cn1nc(C(=O)NCc2ccccc2)c2c1-c1ccccc1S(=O)(=O)C2 | 17.9% |
| Nc1ccc(C(=O)N/N=C\C=C\c2cccc([N+](=O)[O-])c2)cc1 | active: 48% |
| CCC(C(=O)NC1CCCCC1)n1c(SCc2cccc(F)c2)nc2ccncc21 (stereo not drawn) | 23.7% |
| Cc1ccc(S(=O)(=O)C(CNS(=O)(=O)c2ccc(F)c(C(F)(F)F)c2)c2ccco2)cc1 (stereo not drawn) | -20.2% |
| CCCCCCCC(=O)Oc1ccc(C(=O)Nc2cc(C)on2)cc1 | active: 37% |
| CC(CNC(=O)C1CCN(C(=O)c2cc3sccc3n2C)CC1)c1ccccc1 (stereo not drawn) | -0.946% |
| CCOc1ccc(CNCc2c(C(=O)O)n(Cc3ccccc3C)c3cc(OC)ccc23)cc1OC | 26.4% |
| Nc1nc2ccc(C(=O)N3CCCCC3)cc2s1 | active: 51.2% |
| CCOc1ccccc1Nc1sc(C(=O)c2ccc(Cl)cc2)c(N)c1S(=O)(=O)c1ccccc1 | -17.6% |
| O=C(CSc1ncc2c(n1)-c1ccccc1N(Cc1ccc(Cl)cc1)S2(=O)=O)c1ccccc1 | 2.49% |
| Cc1nnc(NC(=O)CSc2nc(C3CCCCC3)nc3ccccc23)s1 | active: 35.4% |
| CCN(Cc1ccccc1)C(=O)Cn1ncc2c(=O)oc3ccc(C)cc3c21 | -19.4% |
| Cc1cccc(N2CCN(C(=O)c3ccc4c(c3)N(Cc3cccc(Cl)c3)C(=O)c3ccccc3S4(=O)=O)CC2)c1C | 9.82% |
| CCOc1ccc(NC(=O)CCc2nnc3n(C)c(=O)c4sccc4n23)cc1 | 11.3% |
| CCOC(=O)C1CCN(c2ncnc3c2c(-c2ccccc2)cn3-c2ccc(Cl)cc2)CC1 | 23% |
| CCOc1ccccc1CNS(=O)(=O)c1cc(-c2onc(C)c2C)ccc1OC | -4.65% |
| CCOC(=O)c1c(C)[nH]c(C)c1S(=O)(=O)NCC(=O)NCc1ccccc1C | 13.1% |

| SMILES | inhibition |
| --- | --- |
| CCC(=O)N1c2ccccc2CC1C(=O)N1CCN(c2ccccc2F)CC1 (stereo not drawn) | 9.51% |
| Clc1ccccc1CSc1nc(NCCc2ccccc2)c2ccccc2n1 | 5.49% |
| CCOc1ccccc1Oc1nc(C)nc2c1oc1ccccc12 | 10.7% |
| N#Cc1c(C(F)(F)F)cc(-c2cccs2)nc1SCc1ccccc1F | -3.96% |
| COc1ccc(OCCn2nnc3sc4c(c3c2=O)CCCC4)cc1 | -2.81% |
| CCOc1ccc(-n2nc(CO)c(C(=O)NCC(C)O)n2)cc1 (stereo not drawn) | 16.2% |
| COC(=O)c1cc2sccc2n1CC(=O)Nc1cc(Cl)ccc1OC | 16.4% |
| Cc1cccc(C(=O)NNc2ncnc3c2cnn3-c2ccc(C)c(Cl)c2)c1 | 18.9% |
| CC(CNC(=O)CCCn1c(=O)c2cccn2c2ccc(F)cc21)c1ccccc1 (stereo not drawn) | 6.11% |
| Cc1ccc(-c2nc(CS(=O)CC(=O)NCCc3ccc(Cl)cc3)c(C)o2)cc1 (stereo not drawn) | -26.8% |
| COc1cc(NC(=O)C2Cc3ccccc3N2C(=O)c2ccccc2)cc(OC)c1 (stereo not drawn) | -0.7% |
| Nc1c(C(=O)NCc2ccc(Cl)cc2)sc2nc(-c3ccc(F)cc3)ccc12 | -2.13% |
| CCc1ccc(Nc2sc(C(=O)c3ccc(F)cc3)c(N)c2S(=O)(=O)c2ccccc2)cc1 | 4.72% |
| COc1ccc(OC)c(NC(=O)CCNS(=O)(=O)c2ccc3c(c2)oc(=O)n3C)c1 | -2.49% |
| CCc1ccc(S(=O)(=O)c2cn(CC)c3cc(N4CCCCC4)c(F)cc3c2=O)cc1 | 15.8% |
| COc1ccc2nc(NC(=O)c3cc(=O)c4cc(C)cc(C)c4o3)sc2c1 | 7.43% |
| COc1cc(OC)c(NC(=O)C2CCN(S(=O)(=O)c3ccc4c(c3)oc(=O)n4C)CC2)cc1Cl | 0.491% |
| Cc1ccc(CNC(=O)CN2CCN(Cc3ccc(F)cc3Cl)C2=O)cc1 | -25.5% |
| O=C(CSc1nccn1Cc1ccco1)Nc1cc(C(F)(F)F)ccc1Cl | 11.9% |
| O=C(c1ccc2c(Cl)c3c(nc2c1)CCCC3)N1CCN(c2cccc(C(F)(F)F)c2)CC1 | 20.4% |
| CCN(c1ccccc1)c1nnc(NC(=O)Nc2ccc(Br)c(C)c2)s1 | 12.9% |
| CSc1nnc2c3c4c(sc3nc(-n3nc(C)cc3C)n12)COC(C)(C)C4 | active: 48.4% |
| O=C(CN1C(=O)COc2ccc(S(=O)(=O)N3CCCCCC3)cc21)N1CCN(c2ccccc2F)CC1 | 21.5% |
| CCOc1ccc(CNC(=O)CCS(=O)(=O)c2cc3c4c(c2)CCN4C(=O)CC3)cc1OC | -1.51% |
